This is an account of results in patent US20180221313A1, “USE OF HYDROXYCARBAMIDE FOR PREVENTING RETINAL NONPERFUSION” (priority 2015, published 2018).

One series deals with CRVO patients. Particulars: cited from earlier work.
For series [1] the following is noted: human, in vivo. How it is done: At D15 (W2), D30 (W4), D45, D60 and at M3 (W13), M4, M5 and M6 (W26): a hematological profile (CBC, reticulocytes) is prepared, to monitor the hematological tolerance of the treatment.
The main objective of the three physician visits at M1 (W4), M3 (W13) and M6 (W26) is to evaluate treatment compliance and tolerance during the study.
Furthermore, blood tests are important in order to control the hematological tolerance of the treatment.
The follow-up visits took place 13 days (W2/D15), 27 days (W4/M1) and 108 days (W13/M3) after initiation of treatment.

Series [2] relates to sickle-cell disease patients. Particulars: cited from earlier work.
Another series has as its system mouse L1210 leukemia. Particulars: in vivo; cited from earlier work.
Series [3] has as its system central retinal vein occlusion (CRVO) patient. Briefly: Clinical study: ophthalmological follow-up (ETDRS visual acuity, OCT, fluorescein angiography, angio-OCT, fundus) of a CRVO patient treated orally. The settings on record: for average macular volume (OCT): 6.12 mm^3 at D-1; for average central retinal thickness (OCT): 316 μm at D-1.

As for `CC(=O)Oc1ccccc1C(=O)O` [aspirin], the “efficacy of systemic antithrombotic treatment in CRVO patients” value in the series with CRVO patients is “ineffective, even harmful”.
Turning to `NC(=O)NO` [hydroxycarbamide], the “clinical tolerance of the treatment” value in series [1] is listed as “perfect”. Besides, in series [1] (20 mg/kg/day), the “thrombocytopenia (platelet count)” value is 60,000 /mm^3. Also, in series [1] (po), the “toxicity of oral treatment at the doses used” value is given as “minimally toxic”. For the same molecule, in series [2] (17-year follow-up, 131 HC patients, 65% for non-HC patients, p=0.001), the “probability of 10-year survival” value is listed as 86%. In series [2] (17.5-year follow-up of the MSH study, sickle-cell disease), the “lower death rate than patients who did not receive HC” value is 40%. The “activity against mouse L1210 leukemia” value with mouse L1210 leukemia is “active”. In addition, in series [3] (D-1 to W13), the “improved visual acuity (change in ETDRS letters)” value is on record as “+11 ETDRS letters” and the “reduction in average central retinal thickness” value was 35 μm. Moreover, in series [3] (W2 visit), the “hemorrhages at examination of the fundus of the left eye” value (“hemorrhages at examination” for short) is “reduction in hemorrhages”, the “average macular volume (OCT)” value is listed as 5.6 mm^3 and the “average central retinal thickness (OCT)” value is 300 μm. Further, in series [3] (W2 visit, 20 mg/kg/day Siklos orally, one patient, 71 letters at D-1), the “visual acuity (ETDRS scale) of the left eye” value turned out to be 73 letters. Further, in series [3] (W4 visit), the “circulation times in the inferior hemi-vein (fluorescein angiography)” value is reported as “improvement in circulation times”, the “hemorrhages at examination” value is reported as “reduction in hemorrhages”, the “nonperfusion zone by retinal fluorescein angiography” value is recorded as “absence of a nonperfusion zone” and the “average macular volume (OCT)” value is 5.48 mm^3. Besides, in series [3] (W4 visit), the “average central retinal thickness (OCT)” value stood at 293 μm. Besides, the “visual acuity (ETDRS scale) of the left eye” value in series [3] (W4 visit, 20 mg/kg/day orally, one patient, 71 letters at D-1) came out at 77 letters. For the same molecule, in series [3] (W13 visit), the “circulation times in the inferior hemi-vein (fluorescein angiography)” value is on record as “normalization of circulation times”, the “hemorrhages at examination” value is listed as “disappearance of hemorrhages”, the “nonperfusion zone by retinal fluorescein angiography” value is on record as “absence of a nonperfusion zone” and the “average macular volume (OCT)” value is 5.23 mm^3. Moreover, the “average central retinal thickness (OCT)” value in series [3] (W13 visit) worked out at 281 μm. In series [3] (W13 visit, dose reduced to 15 mg/kg/d, one patient, 71 letters at D-1), the “left visual acuity (ETDRS)” value came to 82 letters. In addition, the “change in the area of the CAZ” value in series [3] (during treatment) is given as “no significant change”.
As to `CC(=O)CC(c1ccccc1)c1c(O)c2ccccc2oc1=O` (stereo not drawn) [warfarin], the “efficacy of systemic antithrombotic treatment in CRVO patients” value in the series on CRVO patients was “ineffective, even harmful”.
